In all, about 33,000 sequences were measured (“E-score (-0.5 to 0.5)”: median about -0.011, highest 2% from about 0.28 on). This is one part of the list.
Biological target: T1, Gcr1 (UniProt P07261)
T1 sequence: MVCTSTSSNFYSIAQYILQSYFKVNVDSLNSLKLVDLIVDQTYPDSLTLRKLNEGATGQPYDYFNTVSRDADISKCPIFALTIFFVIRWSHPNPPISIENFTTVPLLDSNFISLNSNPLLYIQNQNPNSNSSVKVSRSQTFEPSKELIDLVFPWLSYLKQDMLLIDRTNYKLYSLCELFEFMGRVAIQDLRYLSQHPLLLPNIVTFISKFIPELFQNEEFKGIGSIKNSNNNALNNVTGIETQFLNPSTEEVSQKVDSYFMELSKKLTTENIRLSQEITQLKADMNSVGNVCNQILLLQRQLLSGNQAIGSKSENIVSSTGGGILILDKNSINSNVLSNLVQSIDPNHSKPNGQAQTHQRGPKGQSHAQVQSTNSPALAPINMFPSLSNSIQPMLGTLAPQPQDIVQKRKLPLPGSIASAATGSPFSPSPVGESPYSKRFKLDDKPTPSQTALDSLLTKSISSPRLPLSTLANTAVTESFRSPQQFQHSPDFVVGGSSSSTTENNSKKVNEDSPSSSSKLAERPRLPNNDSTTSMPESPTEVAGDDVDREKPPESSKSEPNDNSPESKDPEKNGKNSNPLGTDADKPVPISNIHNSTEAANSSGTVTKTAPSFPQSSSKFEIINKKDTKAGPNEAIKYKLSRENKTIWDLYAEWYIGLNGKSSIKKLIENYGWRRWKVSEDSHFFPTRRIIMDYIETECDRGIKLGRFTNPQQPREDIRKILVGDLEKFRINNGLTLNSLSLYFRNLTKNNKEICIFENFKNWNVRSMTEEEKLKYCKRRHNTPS
Assay: PBM E-score (8-mer binding enrichment) (E-score (-0.5 to 0.5)); higher = stronger / more preferred TF binding; most listed sequences are background and not binding sites
Conditions: protein concentration: 100 nM; construct: GST-full length
Procedure, shortened: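 PURExpress in vitro transcription/translation supplied GST-tagged yeast transcription factors, either full-length or DNA-binding domain. Applied at about 100-200 nM to universal all-10-mer Agilent arrays double-stranded by primer extension, the bound protein was detected with fluorescent anti-GST. E-scores, modified Wilcoxon-Mann-Whitney statistics, were given by the Universal PBM Analysis Suite to ungapped eight-base words pooled with their reverse complements after masliner normalisation.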

Sequence	PBM E-score
TAGTTCCA	0.106
CACTGGGA	-0.0218
GGGCATCA	0.159
AACGGCGA	0.00215
ACTGAACC	-0.154
CTGATGTC	-0.161
AGCTCCGC	-0.0453
AACAAGAC	-0.0162
ACTAACGC	-0.0486
CGGTACAC	-0.124
GACTGATA	0.015
GGTGCGCA	0.182
AGGTTTGC	-0.144
ACTATGGC	-0.13
AGTCGACT	0.11
ACTTGGAG	0.094
GCGCGCGA	0.0214
ACAGATGT	0.0175
ACATTCCC	0.0896
GACGAAAC	-0.102
TATTCAAA	0.161
ATACCCAC	-0.119

Sequence	PBM E-score
ATTCGACG	0.0051
AGTGTGGA	0.199
AAGATAAA	0.0762
AGTGTCAT	-0.0106
TCTCCCAA	-0.134
ATGTTTAG	0.19
AGGATTTA	0.0224
AGGACCGA	-0.0238
CAGCGTGA	-0.0708
GCTTCACC	-0.114
CTCATCAG	0.0338
CCTCTATC	0.221
AAGCGGTA	0.0596
ACGCGAGG	-0.0221
AACAAAGC	0.131
CGCCTCGA	0.0744
ATCCTCAG	-0.165
CCCCGGCC	-0.168
CATAACCG	-0.0467
AAGGAAGT	0.147
ATCTTGTG	0.174
GGTTTTAC	-0.0204

Sequence	PBM E-score
CCTTCCGA	-0.12
CCCGCGCA	-0.127
TGACGACA	0.0813
TACAGACA	-0.0516
CCACCGCA	-0.218
TACATTCA	-0.00055
GCAGCATA	-0.0763
AGTTTCAT	0.116
ACGCAAAA	-0.0858
CCCCTACA	-0.159
GAAAAGCA	0.0861
CACCAGAC	0.00613
GATCGTGC	-0.19
CTTCGAAG	0.0307
ATGCTTAC	-0.202
GCACTGGC	-0.109
AACGGTAG	-0.023
ACTCGTCC	-0.119
GAGCACAA	-0.0302
CATGCGAC	-0.26
CAAATTTA	0.22
AATTGGAG	0.107

Sequence	PBM E-score
GCAAGCAA	-0.215
CCGCCGCC	0.0704
CGACCTCA	-0.113
CCCTACGA	-0.125
AAAAGTTT	0.139
ACGAGGAG	0.0149
AAGTGGGC	0.19
ATCAGCAT	0.136
ATGAACCA	-0.101
AATATACC	-0.0618
ACCATACC	0.0742
CCCAGAGA	0.113
CATGTGTC	-0.204
ATACCAAG	0.129
ACCACTCT	0.122
ACGTCGAC	0.0185
CAACATTA	0.0316
GCATAAGC	-0.137
CTGCCCAC	-0.101
AGACTCGG	-0.189
ACTCCTAC	-0.0219
CCCTAACC	0.0899

Sequence	PBM E-score
ACTGCAAA	-0.0564
TATGCTGA	-0.0029
CCGTGGAA	0.0996
CCTGGCAG	-0.126
CGAGCCCG	-0.0991
ACTTATCG	-0.12
CCGGTTCC	0.122
TGCGAGAA	0.0253
CCTACTAA	0.204
GCAGTGCA	-0.247
ACCACGGA	-0.146
ACTTTTCG	-0.0432
TTAGAAAA	0.0279
CTGAGCTA	-0.0113
TAACTGAA	0.144
CACTTGTA	-0.0592
CAGTATCA	0.0318
ATGCCACG	-0.0778
GTCAGCTA	-0.231
GTATGGCA	0.0292
ATTAACAG	0.194
ATATTGTG	-0.0532

Reference: the supplement of paper PMC3334620
